Reference: the supplement of paper PMC12067093, “Discovery and optimisation of a covalent ligand for TRIM25 and its application to targeted protein ubiquitination” (Chemical Science, 2025)
The full data set covers some 21,000 targets. This sample favours those with the largest changes.

Tests used:
[1] = compound: CC1Cc2ccccc2N1C(=O)C1CCCN(C1)C(=O)CCl (mixture of isomers) [TRIM25 ligand 11 (diastereomer mixture)]; test: probe-labelled cysteine peptide fold change vs DMSO (competition) (log2 fold change); higher = less target engagement (more negative = stronger competition); details: THP-1, incubation time: 4 h
compound 10 = compound: Cc1cc(ccc1-c1ccccc1)C(=O)N1CCCN(CC1)C(=O)CCl [compound 10]; test: as above; details: THP-1, incubation time: 4 h

ACSF2_Q96CM8_503_WYWTGDVATMNEQGFCK (UniProt Q96CM8)
probe-labelled cysteine peptide fold change ([1]; 10 µM): 0.0727 | probe-labelled cysteine peptide fold change ([1]; 50 µM): 0.0552

ACTN4_O43707_173_EGLLLWCQR<|>ACTN1_P12814_154_EGLLLWCQR (UniProt P12814+O43707)
probe-labelled cysteine peptide fold change ([1]; 10 µM): 0.134 | probe-labelled cysteine peptide fold change ([1]; 50 µM): 0.169

AFF3_P51826_301_SGETNSCVEEIIR (UniProt P51826)
probe-labelled cysteine peptide fold change ([1]; 10 µM): -0.0479 | probe-labelled cysteine peptide fold change ([1]; 50 µM): -0.388

A8MVJ9_A8MVJ9_153_KNCIIVPNGDNVFAAVK<|>HPF1_Q9NWY4_152_KNCIIVPNGDNVFAAVK (UniProt Q9NWY4+A8MVJ9)
probe-labelled cysteine peptide fold change ([1]; 10 µM): -0.365 | probe-labelled cysteine peptide fold change ([1]; 50 µM): -0.114

ABL2_P42684_266_CNKPTVYGVSPIHDK (UniProt P42684)
probe-labelled cysteine peptide fold change ([1]; 10 µM): 0.341 | probe-labelled cysteine peptide fold change ([1]; 50 µM): 0.298

ACSL1_P33121_241_CGVEVTSMK (UniProt P33121)
probe-labelled cysteine peptide fold change ([1]; 10 µM): -0.243 | probe-labelled cysteine peptide fold change ([1]; 50 µM): -0.071

ACADVL_P49748_477_LFVALQGCMDK (UniProt P49748)
probe-labelled cysteine peptide fold change ([1]; 10 µM): -0.11 | probe-labelled cysteine peptide fold change ([1]; 50 µM): -0.0345

ADNP_Q9H2P0_514_YLPTDTLLNHMLIHGLSCPYCR (UniProt Q9H2P0)
UniProt Q9H2P0, sequence (Q9H2P0 whole entry, looked up): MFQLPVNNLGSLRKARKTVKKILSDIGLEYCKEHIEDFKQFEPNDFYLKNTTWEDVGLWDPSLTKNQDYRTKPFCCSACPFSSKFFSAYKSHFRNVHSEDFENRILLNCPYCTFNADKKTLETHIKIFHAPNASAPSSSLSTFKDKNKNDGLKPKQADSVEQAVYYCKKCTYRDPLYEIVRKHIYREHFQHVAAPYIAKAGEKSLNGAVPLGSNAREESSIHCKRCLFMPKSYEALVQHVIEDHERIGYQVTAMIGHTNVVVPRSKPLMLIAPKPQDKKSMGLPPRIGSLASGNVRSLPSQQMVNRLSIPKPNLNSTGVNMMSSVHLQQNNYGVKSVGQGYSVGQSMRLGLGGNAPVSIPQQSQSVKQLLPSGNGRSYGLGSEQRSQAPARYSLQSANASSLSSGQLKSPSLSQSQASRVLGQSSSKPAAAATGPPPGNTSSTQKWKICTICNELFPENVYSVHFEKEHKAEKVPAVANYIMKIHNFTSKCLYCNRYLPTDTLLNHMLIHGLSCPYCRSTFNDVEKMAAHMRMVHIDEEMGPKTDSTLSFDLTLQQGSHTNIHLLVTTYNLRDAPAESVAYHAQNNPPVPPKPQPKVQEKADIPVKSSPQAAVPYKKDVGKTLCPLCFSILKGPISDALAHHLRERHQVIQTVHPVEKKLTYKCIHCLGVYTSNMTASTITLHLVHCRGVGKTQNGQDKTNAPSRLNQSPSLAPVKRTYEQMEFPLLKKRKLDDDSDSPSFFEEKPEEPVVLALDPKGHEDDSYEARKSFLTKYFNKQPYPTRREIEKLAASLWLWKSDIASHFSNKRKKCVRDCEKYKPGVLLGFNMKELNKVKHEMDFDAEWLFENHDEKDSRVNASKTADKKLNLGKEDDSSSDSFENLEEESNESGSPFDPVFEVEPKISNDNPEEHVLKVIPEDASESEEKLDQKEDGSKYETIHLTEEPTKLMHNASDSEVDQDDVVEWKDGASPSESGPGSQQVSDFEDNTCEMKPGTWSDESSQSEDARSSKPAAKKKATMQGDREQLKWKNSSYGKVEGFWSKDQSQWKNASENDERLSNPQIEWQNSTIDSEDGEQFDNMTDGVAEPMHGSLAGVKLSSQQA
probe-labelled cysteine peptide fold change ([1]; 10 µM): 0.182 | probe-labelled cysteine peptide fold change ([1]; 50 µM): 0.0384

ADGRL3_Q9HAR2_36_ELSCESYPIELR (UniProt Q9HAR2)
UniProt Q9HAR2, sequence (Q9HAR2 whole entry, looked up): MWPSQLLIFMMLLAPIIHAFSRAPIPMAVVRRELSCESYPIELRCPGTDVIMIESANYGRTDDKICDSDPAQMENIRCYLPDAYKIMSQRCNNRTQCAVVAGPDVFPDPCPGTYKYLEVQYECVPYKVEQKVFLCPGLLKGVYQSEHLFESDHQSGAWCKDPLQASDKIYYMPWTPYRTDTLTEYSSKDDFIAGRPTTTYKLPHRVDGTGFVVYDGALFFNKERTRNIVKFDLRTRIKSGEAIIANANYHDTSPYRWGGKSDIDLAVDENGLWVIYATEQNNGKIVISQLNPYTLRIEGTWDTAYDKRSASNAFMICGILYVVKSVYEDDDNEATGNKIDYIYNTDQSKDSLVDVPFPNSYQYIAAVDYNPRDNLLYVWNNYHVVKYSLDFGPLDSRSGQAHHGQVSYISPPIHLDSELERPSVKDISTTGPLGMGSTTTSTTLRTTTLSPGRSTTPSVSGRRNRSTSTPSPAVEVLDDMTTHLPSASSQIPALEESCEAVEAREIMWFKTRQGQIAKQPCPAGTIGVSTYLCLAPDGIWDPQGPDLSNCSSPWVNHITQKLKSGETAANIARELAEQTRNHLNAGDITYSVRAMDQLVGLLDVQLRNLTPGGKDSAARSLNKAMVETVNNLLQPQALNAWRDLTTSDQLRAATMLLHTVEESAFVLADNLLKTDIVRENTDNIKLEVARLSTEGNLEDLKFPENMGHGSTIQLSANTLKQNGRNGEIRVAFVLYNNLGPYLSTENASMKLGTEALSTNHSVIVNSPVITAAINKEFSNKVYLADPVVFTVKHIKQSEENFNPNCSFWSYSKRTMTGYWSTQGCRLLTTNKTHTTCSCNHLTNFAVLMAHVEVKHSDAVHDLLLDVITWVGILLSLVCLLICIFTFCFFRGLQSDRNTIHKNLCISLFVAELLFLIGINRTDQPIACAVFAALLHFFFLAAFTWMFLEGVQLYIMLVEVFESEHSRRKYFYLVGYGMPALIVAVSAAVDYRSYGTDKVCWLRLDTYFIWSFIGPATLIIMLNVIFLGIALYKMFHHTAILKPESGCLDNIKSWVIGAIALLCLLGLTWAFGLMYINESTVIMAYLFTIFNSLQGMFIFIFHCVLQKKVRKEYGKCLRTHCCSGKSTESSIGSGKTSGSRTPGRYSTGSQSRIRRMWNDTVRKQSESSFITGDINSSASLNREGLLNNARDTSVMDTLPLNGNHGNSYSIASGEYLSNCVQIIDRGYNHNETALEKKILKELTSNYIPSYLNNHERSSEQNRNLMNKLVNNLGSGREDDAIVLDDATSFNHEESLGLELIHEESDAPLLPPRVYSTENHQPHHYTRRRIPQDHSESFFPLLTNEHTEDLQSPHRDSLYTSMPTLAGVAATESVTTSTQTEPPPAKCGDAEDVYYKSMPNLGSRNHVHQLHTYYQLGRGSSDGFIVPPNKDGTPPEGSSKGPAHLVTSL
probe-labelled cysteine peptide fold change ([1]; 10 µM): 0.0942 | probe-labelled cysteine peptide fold change ([1]; 50 µM): 0.0561

ACSL1_P33121_297_NIVSDCSAFVK (UniProt P33121)
probe-labelled cysteine peptide fold change ([1]; 10 µM): -0.0341 | probe-labelled cysteine peptide fold change ([1]; 50 µM): 0.117

ACTR5_Q9H9F9_265_CPDYYENNVHK (UniProt Q9H9F9)
UniProt Q9H9F9, sequence (Q9H9F9 whole entry, looked up): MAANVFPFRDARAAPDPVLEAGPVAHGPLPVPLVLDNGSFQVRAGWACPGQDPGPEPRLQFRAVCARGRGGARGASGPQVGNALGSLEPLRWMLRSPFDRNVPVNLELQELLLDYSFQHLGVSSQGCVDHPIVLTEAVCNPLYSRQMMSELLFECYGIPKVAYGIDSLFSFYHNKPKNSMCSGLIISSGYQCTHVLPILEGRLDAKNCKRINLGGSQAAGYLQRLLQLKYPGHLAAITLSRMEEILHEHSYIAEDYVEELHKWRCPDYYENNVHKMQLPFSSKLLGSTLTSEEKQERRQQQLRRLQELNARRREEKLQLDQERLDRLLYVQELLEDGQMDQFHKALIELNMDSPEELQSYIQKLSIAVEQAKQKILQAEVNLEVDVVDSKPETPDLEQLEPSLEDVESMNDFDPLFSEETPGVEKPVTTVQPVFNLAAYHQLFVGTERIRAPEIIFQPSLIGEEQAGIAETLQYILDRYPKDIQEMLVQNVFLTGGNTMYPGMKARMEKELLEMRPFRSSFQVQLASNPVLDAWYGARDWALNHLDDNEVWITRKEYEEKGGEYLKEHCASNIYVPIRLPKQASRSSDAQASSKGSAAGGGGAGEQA
probe-labelled cysteine peptide fold change ([1]; 10 µM): -0.185 | probe-labelled cysteine peptide fold change ([1]; 50 µM): -0.249

ACAA1_P09110_148_NGSYDIGMACGVESMSLADR (UniProt P09110)
probe-labelled cysteine peptide fold change ([1]; 10 µM): -0.681 | probe-labelled cysteine peptide fold change ([1]; 50 µM): -0.4

ADGRE2_Q9UHX3_328_LQQHCVASHLLDGLEDVLR (UniProt Q9UHX3)
UniProt Q9UHX3, sequence (Q9UHX3 whole entry): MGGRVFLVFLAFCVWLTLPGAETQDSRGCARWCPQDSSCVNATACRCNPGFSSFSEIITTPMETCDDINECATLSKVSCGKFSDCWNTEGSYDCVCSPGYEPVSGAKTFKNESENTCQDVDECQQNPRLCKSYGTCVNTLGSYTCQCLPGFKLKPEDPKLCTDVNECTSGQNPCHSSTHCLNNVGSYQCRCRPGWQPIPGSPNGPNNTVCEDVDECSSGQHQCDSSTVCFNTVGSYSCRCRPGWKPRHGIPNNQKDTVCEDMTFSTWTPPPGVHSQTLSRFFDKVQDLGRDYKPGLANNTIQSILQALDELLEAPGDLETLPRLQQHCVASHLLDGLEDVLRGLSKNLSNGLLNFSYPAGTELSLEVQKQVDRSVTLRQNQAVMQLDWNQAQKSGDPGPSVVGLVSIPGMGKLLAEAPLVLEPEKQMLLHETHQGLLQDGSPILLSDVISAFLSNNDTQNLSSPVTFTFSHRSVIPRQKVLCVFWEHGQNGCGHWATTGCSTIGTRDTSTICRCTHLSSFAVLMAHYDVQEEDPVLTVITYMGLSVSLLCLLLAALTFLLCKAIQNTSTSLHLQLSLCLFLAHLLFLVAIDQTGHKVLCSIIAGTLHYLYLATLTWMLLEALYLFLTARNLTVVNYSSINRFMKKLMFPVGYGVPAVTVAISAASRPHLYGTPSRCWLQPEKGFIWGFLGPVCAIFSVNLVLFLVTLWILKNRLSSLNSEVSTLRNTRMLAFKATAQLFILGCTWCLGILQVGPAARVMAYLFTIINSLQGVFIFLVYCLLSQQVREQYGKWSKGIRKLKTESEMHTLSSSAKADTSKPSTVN
probe-labelled cysteine peptide fold change ([1]; 10 µM): -0.169 | probe-labelled cysteine peptide fold change ([1]; 50 µM): 0.0528

ADAR_P55265_622_SPVTTLLECMHK (UniProt P55265)
probe-labelled cysteine peptide fold change ([1]; 10 µM): -0.0729 | probe-labelled cysteine peptide fold change ([1]; 50 µM): -0.0592

ACIN1_Q9UKV3_1083_FLCADYAEQDELDYHR (UniProt Q9UKV3)
probe-labelled cysteine peptide fold change ([1]; 10 µM): -0.0286 | probe-labelled cysteine peptide fold change ([1]; 50 µM): -0.129

ABCF1_Q8NE71_741_FGLESHAHTIQICK (UniProt Q8NE71)
probe-labelled cysteine peptide fold change ([1]; 10 µM): -0.00214 | probe-labelled cysteine peptide fold change ([1]; 50 µM): 0.111

ACSL4_O60488_303_GVMMHHSNLIAGMTGQCER (UniProt O60488)
probe-labelled cysteine peptide fold change ([1]; 10 µM): 0.0224 | probe-labelled cysteine peptide fold change ([1]; 50 µM): -0.0909

ABHD15_Q6UXT9_199_GHHGCPLVSPR (UniProt Q6UXT9)
probe-labelled cysteine peptide fold change ([1]; 10 µM): -0.246 | probe-labelled cysteine peptide fold change ([1]; 50 µM): -0.0346

AACS_Q86V21_525_FPGIWAHGDYCR (UniProt Q86V21)
probe-labelled cysteine peptide fold change ([1]; 10 µM): 0.00945 | probe-labelled cysteine peptide fold change ([1]; 50 µM): -0.128

AFG3L2_Q9Y4W6_402_NAPCILFIDEIDAVGRK (UniProt Q9Y4W6)
probe-labelled cysteine peptide fold change ([1]; 10 µM): -0.067 | probe-labelled cysteine peptide fold change ([1]; 50 µM): 0.207

AAK1_Q2M2I8_156_LQTGFTENEVLQIFCDTCEAVAR (UniProt Q2M2I8)
probe-labelled cysteine peptide fold change ([1]; 10 µM): -0.0473 | probe-labelled cysteine peptide fold change ([1]; 50 µM): -0.0648

ACP1_P24666_91_QITKEDFATFDYILCMDESNLR (UniProt P24666)
probe-labelled cysteine peptide fold change ([1]; 10 µM): -0.658 | probe-labelled cysteine peptide fold change ([1]; 50 µM): -0.533

ADAR_P55265_499_KLTECQLK (UniProt P55265)
probe-labelled cysteine peptide fold change ([1]; 10 µM): -0.136 | probe-labelled cysteine peptide fold change ([1]; 50 µM): -0.203

ACTN1_P12814_180_DGLGFCALIHR (UniProt P12814)
probe-labelled cysteine peptide fold change ([1]; 10 µM): -0.00309 | probe-labelled cysteine peptide fold change ([1]; 50 µM): 0.0544

AGA_P20933_286_RGEDPTIACQK (UniProt P20933)
UniProt P20933, sequence (P20933 whole entry, looked up): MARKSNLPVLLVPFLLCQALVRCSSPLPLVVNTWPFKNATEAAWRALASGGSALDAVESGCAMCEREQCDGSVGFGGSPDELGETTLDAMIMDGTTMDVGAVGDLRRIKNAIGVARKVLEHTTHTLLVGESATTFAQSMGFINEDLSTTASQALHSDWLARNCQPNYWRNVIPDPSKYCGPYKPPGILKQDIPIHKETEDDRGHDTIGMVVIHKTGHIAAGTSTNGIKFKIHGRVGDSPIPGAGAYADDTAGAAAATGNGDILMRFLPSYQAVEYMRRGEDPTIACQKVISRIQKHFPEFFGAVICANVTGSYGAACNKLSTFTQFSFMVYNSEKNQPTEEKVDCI
probe-labelled cysteine peptide fold change ([1]; 10 µM): -0.0737 | probe-labelled cysteine peptide fold change ([1]; 50 µM): 0.169

ACAA1_P09110_123_QCSSGLQAVASIAGGIR (UniProt P09110)
probe-labelled cysteine peptide fold change ([1]; 10 µM): -0.149 | probe-labelled cysteine peptide fold change ([1]; 50 µM): -0.0511

WDR45B_Q5MNZ6_63_CNYLALVGGGK (UniProt Q5MNZ6)
probe-labelled cysteine peptide fold change (compound 10; 10 µM): -0.33 | probe-labelled cysteine peptide fold change (compound 10; 50 µM): -2

ABHD10_Q9NUJ1_239_EAEHHCLLHSPIPVNCPIR (UniProt Q9NUJ1)
probe-labelled cysteine peptide fold change ([1]; 10 µM): 0.103 | probe-labelled cysteine peptide fold change ([1]; 50 µM): 0.158

ADAM10_O14672_530_DDSDCAR (UniProt O14672)
probe-labelled cysteine peptide fold change ([1]; 10 µM): 0.0718 | probe-labelled cysteine peptide fold change ([1]; 50 µM): 0.929

ABCF3_Q9NUQ8_102_ITENYDCGTK (UniProt Q9NUQ8)
UniProt Q9NUQ8, sequence (Q9NUQ8 whole entry, looked up): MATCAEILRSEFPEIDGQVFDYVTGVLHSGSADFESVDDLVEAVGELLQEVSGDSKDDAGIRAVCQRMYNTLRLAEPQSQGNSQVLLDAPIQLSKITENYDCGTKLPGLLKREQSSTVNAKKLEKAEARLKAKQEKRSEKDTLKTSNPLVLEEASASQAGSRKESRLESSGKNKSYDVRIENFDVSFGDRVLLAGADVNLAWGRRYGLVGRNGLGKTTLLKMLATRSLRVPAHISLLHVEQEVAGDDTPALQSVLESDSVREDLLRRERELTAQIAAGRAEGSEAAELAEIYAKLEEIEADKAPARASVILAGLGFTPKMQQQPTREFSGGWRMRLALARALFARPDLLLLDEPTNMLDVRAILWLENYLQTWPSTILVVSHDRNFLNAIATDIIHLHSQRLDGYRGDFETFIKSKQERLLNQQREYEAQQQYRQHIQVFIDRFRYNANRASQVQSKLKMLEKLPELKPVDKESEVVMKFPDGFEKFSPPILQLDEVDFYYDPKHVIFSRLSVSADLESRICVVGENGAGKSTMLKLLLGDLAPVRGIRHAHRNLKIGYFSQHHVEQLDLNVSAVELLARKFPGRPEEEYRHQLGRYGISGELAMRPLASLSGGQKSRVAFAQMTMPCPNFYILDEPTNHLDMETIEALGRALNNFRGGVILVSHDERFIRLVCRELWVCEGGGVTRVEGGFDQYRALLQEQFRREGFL
probe-labelled cysteine peptide fold change ([1]; 10 µM): 0.00483 | probe-labelled cysteine peptide fold change ([1]; 50 µM): -0.0207
